Test results reported in the BET-seq Pho4 binding data (Le et al. 2018).
The other results are listed elsewhere or left out. Values were computed here from the reads of four pooled replicates and scatter widely.

target: T1, Pho4 (S. cerevisiae) (UniProt P07270); test: relative binding free energy (BET-seq); higher = weaker binding; details: reference: library average
T1 sequence: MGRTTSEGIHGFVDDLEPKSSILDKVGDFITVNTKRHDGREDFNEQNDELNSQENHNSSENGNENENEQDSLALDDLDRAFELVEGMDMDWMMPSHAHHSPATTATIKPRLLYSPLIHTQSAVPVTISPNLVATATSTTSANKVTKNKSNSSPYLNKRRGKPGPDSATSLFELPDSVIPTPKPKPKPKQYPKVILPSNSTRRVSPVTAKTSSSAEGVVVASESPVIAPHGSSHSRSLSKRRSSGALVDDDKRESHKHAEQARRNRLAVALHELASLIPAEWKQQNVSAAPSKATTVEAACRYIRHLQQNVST

Row | Sequence | relative binding free energy
1 | CTAAGCACGTGTAGTT | -0.06 kcal/mol
2 | GGTCGCACGTGATTTG | 0.24 kcal/mol
3 | TATAGCACGTGTCTAG | 0.02 kcal/mol
4 | ATGCTCACGTGGAATG | 0.29 kcal/mol
5 | ATTGACACGTGGATAA | 0.13 kcal/mol
6 | CTATGCACGTGTAGGG | -0.05 kcal/mol
7 | GGAGCCACGTGTTTGG | -0.02 kcal/mol
8 | GTTTCCACGTGGTTTA | 0.1 kcal/mol
9 | TTGTACACGTGGTAGG | -0.03 kcal/mol
10 | GATTTCACGTGACGGT | 0.34 kcal/mol
11 | GTTTCCACGTGGGCGG | 0.07 kcal/mol
12 | TTGCCCACGTGGTTGG | -0.08 kcal/mol
13 | TACAGCACGTGGTGGT | -0.24 kcal/mol
14 | CTGTTCACGTGATCTG | 0.34 kcal/mol
15 | TTGAACACGTGAGGTG | 0.23 kcal/mol
16 | ATTACCACGTGTTTTT | -0.08 kcal/mol
17 | GTATGCACGTGTGAGG | 0.01 kcal/mol
18 | ATGTGCACGTGGCCGT | 0 kcal/mol
19 | TGTCACACGTGCGTTG | 0.02 kcal/mol

Row | Sequence | relative binding free energy
20 | TTTTACACGTGTCGGG | 0.14 kcal/mol
21 | TAGTTCACGTGTAACT | 0.24 kcal/mol
22 | AGGCGCACGTGTTAAG | 0 kcal/mol
23 | TTTTCCACGTGTATTT | 0.02 kcal/mol
24 | TCGTGCACGTGGGTGA | -0.15 kcal/mol
25 | TGGGGCACGTGGAGTC | -0.02 kcal/mol
26 | TAATTCACGTGGAAAG | 0.49 kcal/mol
27 | GGTGACACGTGGGCAA | -0.03 kcal/mol
28 | ATTTGCACGTGCCGTT | 0.02 kcal/mol
29 | CTGGTCACGTGTGGCT | 0.13 kcal/mol
30 | GGGGGCACGTGAGGCG | 0.1 kcal/mol
31 | TAAGTCACGTGTACTT | 0.15 kcal/mol
32 | TTAGCCACGTGTTGTA | -0.11 kcal/mol
33 | GGGTGCACGTGCCGTG | -0.04 kcal/mol
34 | GTGGTCACGTGACTTT | 0.22 kcal/mol
35 | AGGTTCACGTGCTAGA | 0.38 kcal/mol
36 | GTACACACGTGTGTTG | 0.08 kcal/mol
37 | TGGTTCACGTGCCGGC | 0.28 kcal/mol
38 | CGATTCACGTGGTATA | 0.23 kcal/mol

Row | Sequence | relative binding free energy
39 | TGCGGCACGTGGTGTA | -0.2 kcal/mol
40 | TGACGCACGTGGTAAG | 0.04 kcal/mol
41 | TTGGACACGTGTAAAG | 0.19 kcal/mol
42 | ATATACACGTGTGTAG | 0.13 kcal/mol
43 | CATTACACGTGCGGGT | 0.17 kcal/mol
44 | GGTGGCACGTGTGCCG | -0.03 kcal/mol
45 | GTAGACACGTGGGTGC | -0.05 kcal/mol
46 | ACGTTCACGTGGGGTA | 0.04 kcal/mol
47 | GGCCTCACGTGTGGGA | 0.24 kcal/mol
48 | TGCTGCACGTGATTGT | 0.35 kcal/mol
49 | AGGTGCACGTGCAAGT | -0.07 kcal/mol
50 | TATGTCACGTGGCTAT | 0.01 kcal/mol
51 | CGGATCACGTGATGGG | 0.4 kcal/mol
52 | TCGTACACGTGTTTAT | 0.06 kcal/mol
53 | AATGGCACGTGATTTT | 0.12 kcal/mol
54 | GGTGGCACGTGAATAA | 0.09 kcal/mol
55 | ATTTACACGTGCGCGG | 0.02 kcal/mol
56 | GTTGACACGTGATTAT | 0.12 kcal/mol
57 | TTTTTCACGTGCTAGT | 0.28 kcal/mol
